Laboratory results taken from the supplement of paper PMC10338343.
± gives the standard deviation. The full ranking holds about 3,700 sequences; the median of “pre-steady-state target cleavage rate” is about 0.02, and the highest 2% start at about 0.23. The list shows a part of the results, in another mix than the full data.

Each sequence was assayed on MILI (PIWIL2) piRISC loaded with Kctd7 piRNA (26 nt) (assay: pre-steady-state target cleavage rate (min^-1); MIWI and MILI are mouse PIWI proteins and EfPiwi is from a freshwater sponge; tags in brackets are library labels; higher = faster piRNA-guided slicing of the target). Details: guide: Kctd7 piRNA 5'p-UGUUAAUCUCUCAGAGAAGGUGACAG; auxiliary factor: 500 nM mouse GTSF1.
Procedure, shortened: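 The pre-steady-state cleavage rate was derived from a burst-and-steady-state fit of Cleave-'n-Seq data. For these assays, 1 nM active affinity-purified piRISC loaded with a single synthetic guide was mixed with […] a transcribed, DNA-blocked target RNA library in HEPES–potassium acetate buffer at 33 °C, with or without 500 nM GTSF1 partner protein, for 0–8 or 0–960 min. Sequencing counts of uncleaved targets were normalised to depth and to weakly complementary targets, and k3 was capped at 0.0001 min^-1 after three trials were pooled.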
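Further: 1 nM active piRISC with 0.1 nM target library at 33 °C single turnover.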

Sequence	pre-steady-state target cleavage rate
UAGUGACAGACCUACUCUGAGAGAUUUACA	0.0238 ± 0.0093
UAGUCUGUGCACCUUCUCUGAGAGAUUAACA	0.143 ± 0.016
UAGUGUGUCACCUUCUCUGAGUAGAUUAACA	0.0159 ± 0.007
UAGUGACAGACCUUCUCUGAGAGAUAUACA	0.0167 ± 0.0063
UAGUGACUCACGUUCUCAGAGAGAUUAACA	0.0591 ± 0.0053
UAGUGACAGACCUUCUCUGAGAGAGUUAACA	0.133 ± 0.027
UAGUCUGUCACCUUCUCUGAAAGAUUAACA	0.0788 ± 0.0062
UAGUGACAGUCCUUGUCAGAGAGAUUAACA	0.00758 ± 0.0035
UAGUGACAGUGGAAGAGUGAGACAUUAUCA	< 0.0001
UAGUGUGUGACCUUCUCAGAGAGAUUAACA	0.112 ± 0.015
UAGUGACACACCUUCUCUGAGACGAUUAACA	0.0544 ± 0.01
UAGUGACUGACCUUCUCUGAGAGAUAAACA	0.0552 ± 0.013
UAGUGACACACCUUCUCUGUGAGAUUUACA	0.0492 ± 0.0084
UAGUGACAGUGGAAGACUGAGAGAAUUAACA	< 0.0001
UAGUGACAGUGCUUCUCUGAGAGAUUGAACA	0.0897 ± 0.018
UAGUCUGUCAGCUUGUCUGAGAGAUUAACA	0.0411 ± 0.0057
UAGUGACACACCAUGUCUGAGAGAUUAACA	0.0751 ± 0.0098
UAGUGACUCACCUUCUGUGAGACAUUAACA	0.0336 ± 0.0082
UAGUGAGUCACACUUCUCUGAGAGAUUAACA	0.088 ± 0.0088
UAGUGACAGACCAUCACUGAGAGAUUAACA	0.0273 ± 0.0059
UAGUGACACACCAUCUCUGAGAGAUUAAGA	0.00883 ± 0.004
UAGUGACAGUCCUUCUCUGAGAGCAUUAACA	0.063 ± 0.0057
UAGUGACUGUGCUUCUCUGAGAGAUUAAGA	0.0537 ± 0.011

Sequence	pre-steady-state target cleavage rate
UAGUGUGUCACCUUCUCUGAAGAGAUUAACA	0.0134 ± 0.0046
UAGUGAGUCACGUUGUCUGAGAGAUUAACA	0.0943 ± 0.011
UAGUGACAGUGCUUCGUCUGAGAGAUUAACA	0.00406 ± 0.0031
UAGUGACAGACCUUCUCUGUGAGAUUAACA	0.031 ± 0.0046
UAGUGACUCACCUUCUCUCUGAGAUUAACA	0.0048 ± 0.0024
UAGUGAGUCACCUUCUCAGACAGAUUAACA	0.0343 ± 0.0095
UAGUCUGUCACCUUCUCUGUCAGAUUAACA	0.0106 ± 0.0032
UAGUGAGUCACCUUGUCUGAGACAUUAACA	0.0522 ± 0.016
UAGUCUGUGACCUUCUCUCAGAGAUUAACA	0.0415 ± 0.0042
UAGUGACAGUCCUUCUCUGAGAGAUGUAACA	0.112 ± 0.026
UAGUGAGUCACCUACUCUGAGAGAUUAUGA	0.0554 ± 0.018
UAGUGACAGUCCUUCUCUGUGAGAUUUACA	0.0221 ± 0.0037
UAGUGAGUCACCUCCUCUGAGAGAUUAACA	0.223 ± 0.012
UAGUGAGUCACCUAGACUGAGAGAUUAACA	0.0595 ± 0.0067
UAGUCUGUCAGCCUUCUCUGAGAGAUUAACA	0.0883 ± 0.017
UAGUGACAGUCCUUCUCUGAGAGAUUAAUA	0.0418 ± 0.0083
UAGUCUGUUCACCUUCUCUGAGAGAUUAACA	0.215 ± 0.014
UAGUCUGUCACCUUCUCUGUAGAGAUUAACA	0.0114 ± 0.0037
UAGUGACAGAGCUUCACUGAGAGAUUAACA	0.0596 ± 0.012
UAGUGACACACCUUCUCUGAGAGAUUCAACA	0.244 ± 0.061
UAGUGUGUCACCUUCUGUGAGAGAUUAACA	0.185 ± 0.015
UAGUGACACACCUACUCAGAGAGAUUAACA	0.0526 ± 0.0091
UAGUGACAGACCUUCUUCUGAGAGAUUAACA	0.00858 ± 0.0034

Sequence	pre-steady-state target cleavage rate
UAGUGUGUCACCUUGUGUGAGAGAUUAACA	0.115 ± 0.01
UAGUGAGUCACCUUCGUCUGAGAGAUUAACA	0.0714 ± 0.01
UAGUGACUCACGUACUCUGAGAGAUUAACA	0.0384 ± 0.0057
UAGUGUCACACCUUCUCUGAGAGAUUAACA	0.163 ± 0.017
UAGUCUGACACCUUCUCUGAGACAUUAACA	0.024 ± 0.0028
UAGUGAGUCACCUACUCAGAGAGAUUAACA	0.0771 ± 0.0088
UAGUGACACACCUUCUCUGACGAGAUUAACA	0.00569 ± 0.0025
UAGUGACAGUCCUUCUCUCAGAGUUUAACA	0.00328 ± 0.0032
UAGUCUCUCACCUUGUCUGAGAGAUUAACA	0.0068 ± 0.0039
UAGUGACAGUGCUUCUCUGAGAGAUUAAA	0.00274 ± 0.0026
UAGUGUGUGACCUUCUCUGAGAGAUUAUGA	0.0165 ± 0.007
UAGUGAGUCACCUUGUCUGACAGAUUAACA	0.0434 ± 0.013
UAGUGACUCACCAUCUGUGAGAGAUUAACA	0.0783 ± 0.0062
UAGUGACAGACCUUGUCUGACAGAUUAACA	0.0121 ± 0.0036
UAGUGUGUCAGCCUUCUCUGAGAGAUUAACA	0.0557 ± 0.0088
UAGUGACACACGUUCUCUGAGAGAUUAAGA	0.0407 ± 0.0073
UAGUGACAGUCCUUCUCUGAGAGAUUACA	0.00372 ± 0.0026
UAGUGACAGACCUUAUCUGAGAGAUUAACA	0.0894 ± 0.017
UAGUGACACACCUUCUGUCAGAGAUUAACA	0.0317 ± 0.0084
UAGUGACAGUCCUACUCUCAGAGAUUAACA	0.0051 ± 0.0015
UAGUGACUCACCUACUCUGAGAGUUUAACA	0.0635 ± 0.013
UAGUGACACAGCUUCUCUGACAGAUUAACA	0.00821 ± 0.0032
UAGUCUGUCAGGUUCUCUGAGAGAUUAAGA	0.00753 ± 0.0037

Sequence	pre-steady-state target cleavage rate
UAGUGACUCACCAUCUCUGAGAGAAUAACA	0.0138 ± 0.0056
UAGUGACAGUGGUUCUCUGAGAGGUUAACA	0.00596 ± 0.0021
UAGUGACAGACCUUCAGUGAGAGAUUAUGA	0.00709 ± 0.0042
UAGUGUGUCACCUAUCUCUGAGAGAUUAACA	0.136 ± 0.0078
UAGUGACUCACCAAGUCUGAGAGAUUAAGA	0.00481 ± 0.0037
UAGUGACUCACCUUCUGUGAGAGAUUAUGA	0.0186 ± 0.0066
UAGUCUGUCACGAACUCUGAGAGAUUAAGA	0.00281 ± 0.0023
UAGUGACAGAACUUCUCUGAGAGAUUAACA	0.0413 ± 0.011
UAGUCUCUCUCCUUCUCUGAGAGAUUAACA	0.0433 ± 0.011
UAGUCUGUCACCUUCUCGGAGAGAUUAACA	0.155 ± 0.011
UAGUGACUCGCCUUCUCUGAGAGAUUAACA	0.134 ± 0.015
UAGUGAGUCACCUUCACUGAGAGUUUAACA	0.0254 ± 0.012
UAGUGUGUCACCUUCUACUGAGAGAUUAACA	0.13 ± 0.041
UAGUGACAGUGGAUCUCUGAGAUGAUUAACA	< 0.0001
UAGUGUGUCACCUUCUCUCAGAGUUUAACA	0.0494 ± 0.014
UAGUGAGACACCAUCUCUGAGAGAUUAACA	0.133 ± 0.0098
UAGUGACAGACCAUCUCUGUGAGAUUAACA	0.0118 ± 0.0026
UAGUGUGACACCUUCUCUGAGAGAUUAUGA	0.00914 ± 0.0063
UAGUCUGUCACCUUCUCUGAGAAUUAACA	0.0747 ± 0.031
UAGUGAGUCACCUUCUCAGAGAGAUUAUCA	0.0747 ± 0.021
UAGUGAGUCACCUUACUCUGAGAGAUUAACA	0.195 ± 0.017
UAGUGACAGACCUUCGCUGAGAGAUUAACA	0.0735 ± 0.012
UAGUGACUCACCUUCUCUGAGAGGAUUAACA	0.112 ± 0.013
